Here are results for 54 compounds from ChEMBL document CHEMBL4888484, “Replenishing the malaria drug discovery pipeline: Screening and hit evaluation of the MMV Hit Generation Library 1 (HGL1) against asexual blood stage Plasmodium falciparum ,using a nano luciferase reporter read-out” (2022).

The campaign covered roughly 150,000 compounds. About 540 (0.36%) showed an effect of 50% or more. The list shows a part of the results.

The test system of this assay is Plasmodium falciparum. Nature of the assay: Primary screen in NF54 nanoGlo assay, in single point, at 2uM, 72h; a lower Z score goes with more inhibition. The note with it: timepoint 72 hour. It is filed as functional, Erythrocyte.
As to `COC(=O)c1cccc(OC)c1N(C)C(=O)c1cccc(S(=O)(=O)N2CCCCC2)c1`, the “% Inhibition” value is reported as -12% and the Z score is recorded as 1.89.

Regarding `COc1cccc(-n2c(=O)n(CC3CC3)c(=O)c3c2ncn3Cc2ccc(F)cc2)c1`, the “% Inhibition” value is recorded as -14% and the Z score was 1.37.

For `CC(C)CNC(=O)C(=O)NCCCN1CCCC1=O`, the “% Inhibition” value is reported as -10% and the Z score was 1.28.

Consider `Cc1nc(C)c(C(=O)N[C@H](c2nc3ccccc3n2C(C)C)C(C)C)s1`, for which the “% Inhibition” value was found to be 3% and the Z score is recorded as -0.39.

Take `CCCN(Cc1c(CC)nn(-c2ccc(OC)cc2)c1Oc1ccc(F)cc1F)C(=O)c1cccs1`: the “% Inhibition” value is listed as -1% and the Z score is given as 0.2.

On to `O=C(CCS(=O)(=O)Cc1csc(C2CC2)n1)N1CCOCC1`, for which the “% Inhibition” value is on record as -1% and the Z score worked out at 0.12.

As for `CC(=O)N1CCC(NC(=O)N(Cc2ccccc2)Cc2nccs2)CC1`, the “% Inhibition” value is -2% and the Z score is 0.38.

With `CC(=O)N1CC[C@H](Cc2ncc(C)n2C(C)C)C1`, the “% Inhibition” value is given as -8% and the Z score turned out to be 0.96.

Turning to `O=c1c2cnc3c(-c4ccccc4)cnn3c2ccn1C[C@H]1CCCO1`, the “% Inhibition” value was -25% and the Z score stood at 2.29.

`O=C(NCc1cccnc1-c1ccccc1)c1cccc(Cl)c1`: the “% Inhibition” value is recorded as -2% and the Z score turned out to be 0.21.

For the compound `Cc1ccsc1[C@H]1CCN(Cc2cccn2-c2ncccn2)C[C@@H]1O`, the “% Inhibition” value is recorded as 8% and the Z score is -1.32.

Turning to `O=C(COc1ccc(F)cc1)Nc1noc(-c2ccccc2)n1`, the “% Inhibition” value is 4% and the Z score is -0.4.

Consider `CCc1nccn1CC(=O)NC(CC)[C@H]1C[C@H](O)C1` (stereo partly drawn), for which the “% Inhibition” value is reported as -4% and the Z score is 0.87.

As to `O=C(N1C[C@@H]2CC[C@H](O)[C@@H]2C1)C1(C(F)F)CCC1`, the “% Inhibition” value is listed as -12% and the Z score is given as 1.19.

Regarding `Nc1c(F)cc(Br)cc1F`, the “% Inhibition” value is reported as -11% and the Z score was determined as 2.06.

`COc1cc(NC(=O)NCCCn2nc(C)nc2C)c2ncccc2c1`: the “% Inhibition” value is reported as -14% and the Z score is given as 1.45.

Regarding `CO[C@H]1[C@@H]2CC[C@H]1CN(Cc1ccccc1Cn1cccn1)C2`, the “% Inhibition” value is given as -2% and the Z score is on record as 0.45.

Regarding `Cc1ccc(CCNS(C)(=O)=O)c(C)c1`, the “% Inhibition” value is listed as 3% and the Z score is -0.31.

On to `COC(=O)c1c(C)[nH]c(C(=O)N2CCCCCC2)c1C`, for which the “% Inhibition” value is -7% and the Z score was 1.52.

Take `COc1ccc(F)cc1C(NC(=O)c1csnc1N)[C@H]1C[C@@H](O)C1` (stereo partly drawn): the “% Inhibition” value is on record as 3% and the Z score is listed as -0.51.

As for `CC(C)c1noc([C@H](C)NCc2cccc3cc[nH]c23)n1`, the “% Inhibition” value is listed as 2% and the Z score is reported as -0.34.

As to `COc1ccc(-c2csc(NC(=O)CN3CCN(c4nccc(OC)n4)CC3)n2)c(OC)c1`, the “% Inhibition” value was found to be 14% and the Z score is on record as -1.84.

In the case of `COc1ccc(NC(=O)N(C2CCOCC2)[C@H]2CCN(S(C)(=O)=O)C2)cc1OC`, the “% Inhibition” value is given as 34% and the Z score was -3.88.

For `Cc1cc(NCCCc2csc(N)n2)n2nccc2n1`, the “% Inhibition” value is -4% and the Z score was 0.71.

For `N#Cc1cccnc1N[C@H]1CC[C@H](c2nccc(O)n2)CC1`, the “% Inhibition” value is -5% and the Z score was found to be 0.81.

`COc1ccc(-c2cccc(C(N)=O)n2)c2ccccc12`: the “% Inhibition” value was 0% and the Z score is given as 0.09.

As for `CCn1c(=O)c(C(=O)NCc2ccccn2)nn(-c2ccc(C)c(Cl)c2)c1=O`, the “% Inhibition” value was -3% and the Z score is listed as 0.32.

For `CC1CCC2(CC1)N=C(c1ccccc1)C(=O)N2CC(=O)N[C@H]1CCc2ccccc21` (stereo partly drawn), the “% Inhibition” value came to 39% and the Z score is recorded as -4.45.

For the compound `Cn1cnnc1[C@@H]1CCCN1Cc1cnc(-c2ccccc2)o1`, the “% Inhibition” value worked out at 3% and the Z score is listed as -0.66.

Consider `Cc1ccc(C(=O)NC[C@H]2CCN(c3cnn(C)c(=O)c3)C2)c(O)c1`, for which the “% Inhibition” value is listed as -12% and the Z score is 1.15.

As to `CN(Cc1cc(-c2ccccc2)[nH]n1)C(=O)Cn1nnnc1CN1CCCC1`, the “% Inhibition” value is on record as -8% and the Z score came out at 1.08.

Consider `O=C(c1cnccn1)N(C[C@H]1CCCO1)C1(C(=O)NC2CCCC2)CCCCC1`, for which the “% Inhibition” value is given as -8% and the Z score is listed as 0.88.

With `Cc1cnn(CCCNC(=O)C2CCCCC2C(=O)N2CCCC2)c1` (stereo not drawn), the “% Inhibition” value is recorded as -10% and the Z score is on record as 0.92.

`COc1ccc(C(=O)N2CC(Oc3nc4ccccc4s3)C2)c(OC)c1`: the “% Inhibition” value is recorded as -17% and the Z score amounted to 1.96.

On to `Cc1nc(CNc2ncnc3c(F)cccc23)sc1C`, for which the “% Inhibition” value was -6% and the Z score came to 0.79.

Regarding `O=C(CCc1cccc2c1OCO2)NC[C@]12C[C@H]1COC21CCC1`, the “% Inhibition” value is on record as -7% and the Z score stood at 1.28.

As for `Cc1ccc(C(=O)C(=O)N[C@@]2(C)CCS(=O)(=O)C2)cc1`, the “% Inhibition” value was -6% and the Z score worked out at 1.17.

In the case of `C[C@@H]1Oc2cc(S(=O)(=O)N3CCN(C(=O)c4ccc(F)c(F)c4)CC3)c(Cl)cc2NC1=O`, the “% Inhibition” value is given as 6% and the Z score was -0.6.

Regarding `COc1ccc(OCc2cc(C(=O)NCCc3ccccn3)n[nH]2)c(Cl)c1`, the “% Inhibition” value is -11% and the Z score is recorded as 2.21.

In the case of `CN(C)C[C@@H]1CN(C(=O)CCCc2ccccc2)C[C@@H]1CO`, the “% Inhibition” value was -4% and the Z score was found to be 0.65.

As for `CC[C@H](NC(=O)N1CCC(c2nc3ccccc3o2)CC1)c1nc(C)no1`, the “% Inhibition” value is reported as -3% and the Z score was found to be 0.62.

On to `Cc1nnc(NC(=O)c2cccc(-n3ccnn3)c2)s1`, for which the “% Inhibition” value is reported as -3% and the Z score stood at 0.4.

Turning to `Cc1ccc(-c2ccc(=O)[nH]n2)cc1NC(=O)CN1CCCC1=O`, the “% Inhibition” value came to 6% and the Z score is -0.73.

For the compound `CCc1nocc1CNC1CCN(CC(F)F)CC1`, the “% Inhibition” value is -10% and the Z score is given as 1.05.

Take `CCN1C(=O)C(=O)N(Cc2cc(-c3ccc(Cl)cc3)no2)C1=O`: the “% Inhibition” value was -10% and the Z score is given as 1.93.

For the compound `O=C(c1cc[nH]n1)N1CCC(Oc2cccc(C(F)(F)F)c2)CC1`, the “% Inhibition” value is -6% and the Z score was determined as 0.81.

As to `CC[C@@H](C#N)N1CCN(C(=O)COC)CC1`, the “% Inhibition” value was -2% and the Z score was determined as 0.28.

As to `CN(CC(=O)NC1CCCCCCC1)S(C)(=O)=O`, the “% Inhibition” value is listed as -8% and the Z score is 1.45.

In the case of `CS(=O)(=O)c1ccc(C(=O)N2CCC[C@H]2c2cccs2)cc1`, the “% Inhibition” value is reported as -2% and the Z score worked out at 0.36.

Take `Cc1cc(C(=O)NCC2CCN(C[C@@H]3CC=CCC3)CC2)nn1C`: the “% Inhibition” value worked out at 10% and the Z score is reported as -1.34.

Consider `c1ccc2c3c(c(CN4CCCCC4)cc2c1)COC3`, for which the “% Inhibition” value amounted to 0% and the Z score is listed as 0.05.

As for `C[C@@H](CNC(=O)c1ccc(CN(C)C)o1)COCc1ccccc1`, the “% Inhibition” value is given as -13% and the Z score is reported as 2.35.

As to `Cc1cc(NC(=O)Cn2nc(Cc3ccccc3)[nH]c2=O)n(C)n1`, the “% Inhibition” value is listed as -12% and the Z score is listed as 1.82.

As to `CC(C)[C@@H](CO)NC(=O)C(O)c1ccccc1` (stereo partly drawn), the “% Inhibition” value is listed as -19% and the Z score was 2.12.

Usually % Inhibition stands for the relative decrease from the control value, in per cent.
